± gives the standard deviation of the averaged measurements. The list shows a part of the results.
system: PfAP2-EXP AP2 domain (GST-tagged); assay: gcPBM binding intensity (ln(normalized median fluorescence intensity)); higher = stronger DNA binding
Summary of the method: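 In this array assay, P. falciparum DNA-binding domains with a GST tag, expressed in E. coli, were applied for 1 h to primer-extended double-stranded 36-bp intergenic genomic probes and negative controls on an Agilent 4 × 180k array. Bound protein was visualised with Alexa488 anti-GST antibody at 488 nm. Binding intensity is the highest Masliner-normalised natural-log median intensity across replicate spots of either probe orientation.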

Row | Sequence | gcPBM binding intensity (ln)
1 | AAAAAAATTAAATGGGGTACAATAAGGGTCAAATAT [XGTACX_site8669] | 9.08 ± 0.52
2 | GGATAATCATACGAAGCATGCTGAATTTCCAAATAA [TGCATGCA_site1013] | 8.7 ± 0.47
3 | AAAAAAAAAAATGGCTGTACATAATATTTAAATAGG [XGTACX_site4286] | 8.86 ± 0.43
4 | TTTTATTATATATATTGTACATATATTTTTATTTTT [XGTACX_site1564] | 8.62 ± 0.33
5 | AAAAAAAAAAAAAACACACATACATACATACATATA [CACACA_site4121] | 8.55 ± 0.16
6 | ATATTTATAACTTGGTGTACTTTGAAAAAAAAAAAA [XGTACX_site5194] | 8.38 ± 0.26
7 | TTATATTAGCCGATGGTGCATATATTTATAGGAAAA [GTGCAC_site9518] | 8.63 ± 0.2
8 | ATAATTTTTTAGATCACACATATAAATAAATAAATA [CACACA_site5175] | 8.3 ± 0.39
9 | TAATAAATGACAAATTAACACACATATATTATATAT [CACACA_site9294] | 8.39 ± 0.59
10 | CGCTCTCTTTAATATTGTACATATATATTATATATA [XGTACX_site7017] | 8.77 ± 0.35
11 | TACAAAAATATATAAACACACAAATATAATATATAT [CACACA_site2942] | 8.64 ± 0.38
12 | ATAAATCAAATGCACACACACAAAAAAAAAAAAAAA [CACACA_site6221] | 8.67 ± 0.21
13 | TATATATAATATTTTTCACACACCATTTCCTTAAAC [CACACA_site1341] | 8.52 ± 0.42
14 | TGTATCTATAATAAAACACACATTTTTAATGTGCTC [CACACA_site6788] | 8.14 ± 0.3
15 | TTTTTTTTTTTTTTTTGTACATAATAAATGTTCTTA [XGTACX_site6754] | 8.21 ± 0.54
16 | ATAGATATAACATATGCATGTAAAATATAACCACTC [TGCATGCA_site60] | 8.98 ± 0.042
17 | AATATATGTATATCCACACACATATATATATATATA [CACACA_site1633] | 10 ± 0.41
18 | TATTTTGTATTCATTTGTCACATATAATAGATAGGA [TGCATGCA_negctrl_site9] | 8.69 ± 0.32
19 | TGTGCGGAAATAAGTGCACACATAGATATATGTATT [CACACA_site9227] | 8.87 ± 0.28
20 | AATAAATAGAAAGAGGTGCTACATTATATTATTTAT | 8.49 ± 0.25
21 | TTATACGAAGTACGTACACACACTTATATGTTACTA [CACACA_site4019] | 8.81 ± 0.32
22 | TATTTAGAAATAAATACACACATACATTTTTGTATA [CACACA_site4557] | 8 ± 0.4

Row | Sequence | gcPBM binding intensity (ln)
23 | GTTTATTTTTTCATTTGTACACATAAATAAATATAT [XGTACX_site7752] | 8.93 ± 0.27
24 | TTAATTATATTATGCACACACAATTGGAAAAAAAAT [CACACA_site1958] | 8.78 ± 0.19
25 | GGTATATATTCTATCACACATATTTCCATGAAAATA [CACACA_site4728] | 8.57 ± 0.014
26 | TCAACTTGATTTATATGTACACATATAAGTAATTAT [XGTACX_site1798] | 8.43 ± 0.33
27 | AAAAATATGCTTCCATGTACTTAAAAAAAAAATTTA [XGTACX_site3617] | 8.21 ± 0.34
28 | ACGTTAGGCTTATTTGCACACTTGTATTAAAATTTT [CACACA_site4854] | 9.11 ± 0.4
29 | AAAAAAAATTTTCTTCTGTTGTATTTTTTATACGTT [GTGCAC_negctrl_site477] | 8.78 ± 0.42
30 | TATACAAACTATGATGCACACATATATATATGTATA [CACACA_site8327] | 8.58 ± 0.26
31 | AAAAAAAAGAAAAAAACACACAATGGAAAAAATGTA [CACACA_site3675] | 8.76 ± 0.74
32 | AAAAAAAAAAAAAAAAGTACACATAATTGTATATGT [XGTACX_site6339] | 8.44 ± 0.21
33 | TTACATATATTGGGGTGTACATATATTTTCCTTCAC [XGTACX_site6224] | 9.12 ± 0.56
34 | AAATCATATTCTTATTTTATTTTTTTTATTTTTTAT [XGTACX_negctrl_site166] | 8.44 ± 0.32
35 | GTTATATGAACTTATATACACACCATTTTTGTAAAT [CACACA_site695] | 8.56 ± 0.59
36 | TGTAGATATTTTTGGGGTACTTTATAAAGAACTAGT [XGTACX_site5635] | 8.87 ± 0.4
37 | GAAAAACAAATATATTAACACACAAACATATAAACA [CACACA_site9315] | 8.77 ± 0.44
38 | ATAAAATCAACAAATCAGGATGTCACGTAAATATCA [CACACA_negctrl_site1009] | 8.71 ± 0.54
39 | ATGAAAAAGTGCTGGATTCTAAAGAAAAAAAAAAAA [CACACA_negctrl_site962] | 8.51 ± 0.51
40 | AAATATTGTTTTTTATGTACTTATTTTTATTTATTT [XGTACX_site3481] | 8.78 ± 0.43
41 | ATATTTTATATATTTGTGCACAATATTATAATATAT | 8.69 ± 0.2
42 | TTTATTTATTATTAAAGTACTAAATTATATTATTAT [XGTACX_site2565] | 8.04 ± 0.29
43 | AGGCATAATTAAAAGTAACAATTATGGAAACGGAGT [GTGCAC_negctrl_site623] | 8.93 ± 0.42
44 | AAAAAAAAAAAAAACACACACATGCACCTCATATTA [CACACA_site556] | 8.85 ± 0.23

Reference: the supplement of paper PMC11417369
